Results reported in the supplement of paper PMC3334620.
The full ranking holds about 33,000 sequences; the median of “E-score (-0.5 to 0.5)” is about -0.056, and the highest 2% start at about 0.38. Some of the results follow.

The sequences below were run against Stb4 (UniProt P50104) (assay: PBM E-score (8-mer binding enrichment) (E-score (-0.5 to 0.5)); higher = stronger / more preferred TF binding; most listed sequences are background and not binding sites). Details: protein concentration: 200 nM; construct: GST-DNA-binding domain.
Outline: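 Yeast transcription factors, full-length or as DNA-binding domains, were expressed with a GST tag using PURExpress in vitro transcription/translation. At about 100-200 nM they were applied to universal all-10-mer Agilent arrays, double-stranded by primer extension on fresh or once-stripped slides. Fluorescent anti-GST detected bound protein, and masliner normalised the scans. E-scores for ungapped eight-base words, pooled with reverse complements, came from the Universal PBM Analysis Suite.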

Row | Sequence | PBM E-score
1 | CACGATAA | 0.0193
2 | CATGCCGC | 0.188
3 | CCCATTCA | -0.0249
4 | ACTTGAAA | -0.0385
5 | ATACAACC | 0.0803
6 | ACCGATGA | 0.126
7 | CGTTTGGC | -0.00198
8 | ATGGCCGC | 0.0472
9 | AGGTTGTG | -0.249
10 | CACGTAGA | -0.214
11 | CGACTAAC | 0.0239
12 | GAACCCCA | 0.0204
13 | CCTACCAG | -0.302
14 | GCATACTA | -0.0326
15 | CCTAGCTA | -0.304
16 | CCGGGTCA | 0.276
17 | CAGAAAGA | -0.176
18 | CACATTTA | -0.314
19 | TGAAATCA | -0.111
20 | GCCCTCTA | -0.171
21 | AGCATAAT | 0.043
22 | ACGCTCAG | -0.291
23 | GCAGGGCA | -0.0426
24 | AAAACATG | -0.0372
25 | CAGTTACA | -0.0353

Row | Sequence | PBM E-score
26 | AGCTGATC | -0.067
27 | GCGATTCA | -0.169
28 | CTCTCGAC | -0.293
29 | CGGTACAG | 0.198
30 | CCGATCTC | 0.336
31 | AGTGAATC | 0.0367
32 | AAGGACCT | -0.0744
33 | CGGTTAAG | 0.235
34 | CACATCCG | 0.425
35 | GAATCCCC | -0.0501
36 | GCAAGAGC | -0.16
37 | CGATGACG | 0.0234
38 | GCCAGTCA | -0.115
39 | ACTCAGTC | -0.154
40 | ATCATCGA | -0.0603
41 | ATAGAACG | 0.0415
42 | TACGCAAA | -0.275
43 | AGTCGAGA | -0.137
44 | TAGTGGCA | -0.183
45 | AAAGGCAG | -0.161
46 | TCAACGGA | 0.191
47 | CAACGATC | 0.0435
48 | AGATATCG | -0.134
49 | AGGGACCG | 0.00132
50 | CGACGGGA | 0.248

Row | Sequence | PBM E-score
51 | AGTAGTAA | -0.122
52 | CTCTTGAA | -0.146
53 | CACTGTGA | -0.018
54 | AATTAGAC | -0.215
55 | ATTGGTCA | -0.131
56 | AGGAGCGA | -0.18
57 | ATCCGGCA | 0.38
58 | ATGACTAG | -0.254
59 | GGCAGTCA | -0.00955
60 | CAAGGCTG | -0.364
61 | CGTGCGTC | 0.0687
62 | CATTCACC | 0.232
63 | GGTAACTA | 0.226
64 | CGGCCGGC | 0.26
65 | AACGTACA | -0.208
66 | CCTAAAAG | -0.401
67 | CAGGAAAG | -0.2
68 | ACGCGTGA | -0.117
69 | ACTGTGGC | -0.288
70 | AGCTGTCA | -0.177
71 | AACGGCTC | 0.191
72 | CTCCACTC | -0.187
73 | CGCCTTAG | -0.078
74 | AACGCCCA | -0.239
75 | CGTTCGGA | 0.465

Row | Sequence | PBM E-score
76 | CACAGGGA | -0.0891
77 | CAGAAACC | -0.0498
78 | ACTCCAGG | -0.0314
79 | GCTAGTAA | 0.00537
80 | AGTGTATA | -0.136
81 | CAATCTAA | -0.142
82 | GAGTTCGC | 0.0169
83 | AGCGAGCT | 0.089
84 | CGCGTGAG | -0.102
85 | AGGTTCAC | 0.0161
86 | AAACTACT | -0.201
87 | GACCGGTA | -0.0223
88 | CGTTGATC | -0.209
89 | CCTAGCCC | -0.125
90 | AAAGATGT | -0.0871
91 | GAGGAGCC | -0.0919
92 | CACAGGCA | -0.361
93 | AACGGAGA | -0.0019
94 | ATATCGCG | 0.0831
95 | CAGTCTGC | -0.0293
96 | AGGGACAC | -0.165
97 | GGGGCTTA | 0.0285
98 | ACTTCACG | -0.0527
99 | AGCGACGC | -0.0403
100 | AAACACCG | 0.147

Row | Sequence | PBM E-score
101 | ACGATAGC | -0.0501
102 | ACTTTAGA | -0.0971
103 | ACGCATTC | -0.00843
104 | CACAGATA | -0.33
105 | AATTCCGC | 0.246
106 | AAAAGCAT | 0.0515
107 | GTGCGGAA | 0.289
108 | GATTCAAC | 0.079
109 | ATGACCAC | -0.083
110 | GGACCATA | -0.0331
111 | AGCTCTAT | -0.276
112 | AGGTAAAC | 0.111
113 | GAATCCAC | -0.134
114 | CATATCCG | 0.403
115 | CGTGCAAG | -0.105
116 | CAACGTGC | -0.0658
117 | ATATAGCG | 0.0331
118 | AGCACCAT | -0.153
119 | CTCCGTCC | 0.15
120 | GGATCACC | 0.0128
121 | CTTAATTC | 0.128
122 | GACAGCGA | -0.116
123 | GGAATCCC | 0.0619
124 | ACCTATTG | -0.026
125 | ATCACCCA | -0.147

Row | Sequence | PBM E-score
126 | GGTTATTA | 0.152
127 | GTACGACA | -0.074
128 | AGCACCCG | 0.345
129 | GCGGCTCC | 0.0298
130 | CGCTTAGC | 0.107
131 | ACGAATAT | -0.152
132 | CCGTGGCA | 0.00718
133 | ATAACCGC | 0.0841
134 | ATCAGGCG | -0.186
135 | AACCCTTG | 0.0122
136 | AATGCACA | -0.0909
137 | AGCTAATA | -0.229
138 | CATCGGAA | 0.435
139 | GTGGAAAC | -0.0201
140 | CATAAACA | 0.0308
141 | ACAGGTCT | -0.143
142 | CTAGGTTA | 0.00764
143 | GAGTACAC | -0.0464
144 | CGTTTAGC | -0.00974
145 | AAATTGAG | -0.247
146 | ATTAGCGG | 0.12
147 | CTAGACTA | -0.243
148 | CTAGGGGC | -0.105
149 | CTTAAACA | 0.036
150 | GCCAGTAC | -0.124

Row | Sequence | PBM E-score
151 | GACTGGAC | -0.149
152 | ATCGAGGG | -0.0551
153 | ACTACTGG | -0.184
154 | CGCAACCC | -0.024
155 | CTGTCAGC | 0.0123
156 | CGAATGCC | 0.0855
157 | CCTCATCG | 0.111
158 | GAGGTAGA | -0.11
159 | CTTTAGTC | -0.173
160 | ATGCCGCG | 0.128
161 | CCACGTGC | -0.231
162 | GACTGGCC | 0.183
163 | GCATCAAA | -0.182
164 | AAGACTAC | -0.0869
165 | CCCACTAC | 0.0298
166 | ATAGACTA | -0.321
167 | ATCCAAGC | -0.241
168 | CATCTACA | -0.0969
169 | AAGCAAGT | -0.09
170 | CCGTAAGC | 0.0573
171 | ACAAATCC | 0.0442
172 | AACACGGG | 0.179
